Experimental findings from the RNAGym collection of RNA variant scans (doi:10.7554/elife.90254) are described below.

To fix the notation:
B1: OR4K15 (parent)
chain: GUUAACGGUCAUAGGCCAUGGAAACUAGGAGCACCAUUUCGCUGCCAGUGAAGAAAUGAACAAAGAAAAUCUGGGCCAGGCAGGCAUCAAAAGAAAUAGUCUUGCGCUCAACCAGAAAGUCUGUAAUCAUUUUAAGGGUA

The source gives no read counts; variants with many changes may rest on few reads.

The variants in this data set derive from B1. The data set is described as follows: self-cleavage, relative activity (ratio to wild type); higher = more cleavage; in vitro, sequencing; the parent is a self-cleaving ribozyme.
Turning to A5G U38G A135G, the self-cleavage came to 1.13. Under G8A A23G A63G stands 0.53. Under U9A U12C U43C A86C A117G stands 0.84; under U9A A11C A62G A118G, 1.99; under A5G U102C A118G, 1.39.

As for A5U A36G A56G A64G, the self-cleavage was 1.56. Under G7A A54G A67G U72C stands 0.22; under G7U A23G A30U A59C A66G U72A U87A, 0.56.

Regarding A5G U26C U87C A96U U102C U108A U131A, the self-cleavage stood at 0. Under G8A A11U A59G U87C G104A A125G stands 0.01; under U9A A11G A78U, 0.26; under U9A A90G A117G, 0.47.

Consider G8C U9C U39C, for which the self-cleavage was 1.62. Under U9A U19C A55G U139C stands 1.25; under G7A G20A C35A, 2.06.

On to G8A A47G C61U A62G G75C A117G, for which the self-cleavage is 0.21. Under G7A A55G U130C stands 1.38. Regarding G7A A86G A89G U120G, the self-cleavage worked out at 2.29.

Regarding A5U G15U A63G A67G U102C A129G, the self-cleavage amounted to 1.31. Under U9A G58U U120C stands 0.77; under G7A A11C A62G U70C A82U G106A, 0.01; under U9A A18U A23U U39C A92G, 1.3. For the variant A5U A23C C40U A52G A91U, the self-cleavage was 1.71.

As to U9A C45G A59U A111G, the self-cleavage worked out at 0.01. Under A5G U19C A82G A96G U102C A116G A129G stands 0.34. Under A5G U57C A96G stands 0.43.

With U9A U38C A78U A82G, the self-cleavage turned out to be 0.07. Under U9A G29C U87C stands 0.98. As to A5G U49C A60G U108C A116G U127C A134G, the self-cleavage was 0.02. Under U9A A98G C121U stands 0.69. Regarding C6U A54G U130C, the self-cleavage worked out at 0.65.

Take G8C A22U A94G U100C: the self-cleavage was determined as 2.52. Under G7C A23G U26A U43C stands 1.01. Under G7A U19A U49C stands 1.15; under C6G A89G U108C, 0.02; under U9C A11G U49A, 0.84. Under A5U A51G A52G U87C stands 1.31; under U9A A56G U57C, 0.49; under U9A A18U A24U A36G A118U, 1.32. C6A U19C A63U: the self-cleavage was 0. Under A5U A18G A24G U39C G44A A92G U102C stands 2.27. Under U9A A22G U38C A82G A116G A126G stands 0.09; under G7A A13G U39A C88U A94G, 1.44. Under A5U A52G A98G U102C stands 1.52; under A5G U37C A67G C112A, 0. On to U9A U49A A111G, for which the self-cleavage was 0.03. Take G7U A55G U57C A135U: the self-cleavage came out at 1.3. With C6A C32A A68G A140G, the self-cleavage was 1.63. Take A5G U37C G58U U130C: the self-cleavage is 0.7.

As for G7U U19C A56G U122C U131A, the self-cleavage came out at 0.73. Under A5G U26C U38C U102A U103G C109U A110C stands 0.04. Under A5U U70C A110C C121U stands 0.44. With A5U A47U A56G U100C U120A, the self-cleavage turned out to be 2.44. As to A5U A60G A118U, the self-cleavage came out at 0.76. Regarding G7A A90G A94G, the self-cleavage was determined as 0.77. Under C6U A56G U97A U108C A125G stands 0.01; under A5U A11G A55G A98U U108C A114U, 0.34; under A5G U37C G136A, 1.25. Under G8A A24C A92G stands 1.42; under C6U A67G A92U A117G U122C, 1.25.

Consider G7U U120C U124C, for which the self-cleavage turned out to be 0.41. Under G7A A22G A63G U108C stands 0.04; under A5U U72C A111G G138C U139C, 0.01; under G8A U38C A54G, 2.37.

A5U U49C G79U G106A: the self-cleavage turned out to be 0.03.

For the variant A5U A47C A98G A110G, the self-cleavage came out at 0.06. As to C6A U97C U130C, the self-cleavage came to 1.4. Under A5U A67G C101A stands 0.3; under G7A G93A U103C U122A U131C, 0.94. Under G8A U19C U39C A90G A91G stands 0.49. Under C6U U9C A13G U57C G75C stands 0.54; under G8A U9C A64G A135G, 0.87; under A5U U57A A95G C112U, 0.06. On to C6A U19C U124A, for which the self-cleavage was determined as 0.57. For the variant C6U U19C A27U A114G A117G A126G U139C, the self-cleavage stood at 0.66. Under U9A A51G A52U U72A A117G stands 0.45; under U9A A67G G79A A126G, 0.04. Under U9A U38C A52G U133C stands 1.73; under C6U G20A G104A A134G, 0.08. Consider A5U G31A U100C, for which the self-cleavage was found to be 1.73. For the variant G7A U43A A96G, the self-cleavage turned out to be 2.09.

Take A5G U70C U87C A91G A92G U122A U132C: the self-cleavage was 0.21. For U9A A117U U133A, the self-cleavage is 1.51. For G8A U12C U57C A125G U127C, the self-cleavage was 0.16. Under U9C A11G A18U A59G A110G A111G stands 0.19.

G7A A64G A92G A116G: the self-cleavage was determined as 1.47. Under A5U A24G C46U A89G A111C stands 0.04. Under G7A U37C A129G U132C stands 0.83; under A5U U12C A33G A62G, 1.39; under C6U A13U A47U A54G A64U A89G C112A U139C, 0.03. Under G7U A52G A55G A60G A114G U127A stands 0.2; under A5G U37C A62G G80U C88U, 0.12; under A5G U49A U100C U108C, 0.02.

In the case of A5G U43C U49C A68G G75U, the self-cleavage amounted to 0.21. Under U9A A92G A117U stands 1.02. Under A5U U57C U122G stands 2.15. Under G7A U37C A91G A117G U130C stands 0.89; under G7A U19C A23U, 1.47; under C6U A62G A114G A126G A135G, 0.3. In the case of G7A U12C C40U A55G U122C U127A, the self-cleavage turned out to be 0.74. Under U9A A27C A55G A69U A94G A125G stands 0.61; under C6U G14A U19A A55G G73A A82U A110G, 0.03. Under G7U A64G A69G A96G U122C stands 1.34.

As for A5G U9C A78G A89G A94C U127C, the self-cleavage came to 0.34.

On to A5U U49C A89G, for which the self-cleavage was determined as 1.02. Under G7A A56G U108C U139C stands 0.01; under A5G U37C A54G, 0.89.

As to G7A A23G A33U C61U A69G G74C A82G, the self-cleavage came to 0.22. Turning to A5G U43C A62G A86G, the self-cleavage was found to be 0.57. Under A5G U19G U37C A110G stands 0.09; under U9A U26C U37C, 1.33; under C6A A47G A86G, 0.37. Under A5G U103C G104U stands 0.05; under U9A A110G U122C, 0.09.

C6A U37C U38C A54U A117G: the self-cleavage is 1.66. U9A U37C U100C A114G U122C: the self-cleavage stood at 0.32. In the case of A5U A11U G44A A68U A92G A126G, the self-cleavage stood at 1.04. Under U9C A11G U43A stands 1.66; under G7U U9G A89G, 1.78.

For U9A A23U A98G U100C U139C, the self-cleavage was 1.28. Under A5G U37C U70C U87A U108C stands 0.03; under G8A A82G C105U A114G, 0.11; under G7A C81G A82C, 0.17. In the case of G7A A18G G31C U38C A90G A114U, the self-cleavage stood at 0.15. On to C6G A36U A67G A86G A96G, for which the self-cleavage was 0.92. Under A5G U38A A69G U133C stands 1.16; under A5U A22G G75U U87A C109U A117G, 0.03; under G8U A67G A96G, 1.88. Under A5G U19A G73A U130C stands 0.06; under G7A A62G A110G, 0.23. Under C6U U12A A22U U130G stands 1.09; under A5G U9C A52G G106A, 0.06; under G7A A51G U57A, 0.93. Turning to C6A A13U U39C U57A G136A, the self-cleavage was found to be 0.87. Under G7C A90U A94U U124C stands 0.39; under C6A A18U U57C U103C A111C, 0.02; under A5G U43A A59G A94G, 1.08. Under U9A U26C A96G A126G U131C stands 1.61; under A5G U87C A96U, 2.4.

On to A5G U37C A67G, for which the self-cleavage came to 1.24. Take A5G U57G U108C: the self-cleavage was 0.01. Under U9A A69U U130C stands 0.89. Under A5G U49A A90C A125G stands 0.44; under A5U A33C U122C A140G, 1.88; under C6U A13U U37C A59G A114G, 0.31.

With U9A A11G A92G, the self-cleavage came to 1.42.

Turning to G7U A13U U103A, the self-cleavage stood at 0.58.

For the variant A5U U108C A125G U132C, the self-cleavage amounted to 0.01. Take G8U U26C G58A A96G U102C U132C: the self-cleavage was 1.12. Under U9A A82U A98G U127C stands 0.03; under A5U U19A U103G U130C, 0.02; under U9A U39A U132C, 1.02.

On to G7A U97C A98U, for which the self-cleavage was determined as 0.48.

For U9A A22U A60G C76U U122A, the self-cleavage came out at 0.04. Under G7A A13G A18G U100A stands 0.26; under U9A A60G A95G U97C, 0.52; under U9A U26C U49A A59G A60G G75A U122C, 0.12.

On to A5G U12C C40U A96G, for which the self-cleavage worked out at 0.72.

With U9A U87C A111G, the self-cleavage was determined as 0.04. Under A5G U72C A78U G106U A110G A117G U122C A134G stands 0; under G8A A59C A67U, 2.33; under A5G U37C A62G A111G, 0.09.

As to G7A U19A A23G A86G, the self-cleavage was determined as 1.03. Under A5G U38A A51U A96G U130C stands 0.39; under U9A G28A A64G A78U U131C, 0.07.

In the case of G7A A22U A89G, the self-cleavage came out at 0.6. Under C6U A23G A52G stands 0.41.
